Laboratory results from patent US12433868B2 (priority 2010, dated 2025).

Tests used:
[1] = both, human, in vivo, po, 400 mg
clinical = conditions: both, human, in vivo, po, 400 mg; for AUC: AUC0-τ; for AUC(0-inf): AUC0-∞

For `O=C(NN1C(=O)C2C3C=CC(C4CC34)C2C1=O)c1ccc(C(F)(F)F)cc1` (single isomer, unassigned) [Form I, 4-trifluoromethyl-N-(3,3a,4,4a,5,5a,6,6a-octahydro-1,3-dioxo-4,6-ethenocycloprop[f]isoindol-2(1H)-yl)-benzamide], the “AUC(extrap), Geometric Mean” value [1] was 15.748%, the “AUC(extrap), Mean” value [1] was 17.444% and the “AUC(extrap), Median” value [1] was 13.214%. It also gave an AUC (clinical; Geometric Mean) of 14800 ng·h/mL, an AUC (clinical; Median) of 14200 ng·h/mL and an AUC(0-inf) (clinical; Geometric Mean) of 19000 ng·h/mL. It also gave an AUC(0-inf) (clinical; Median) of 17200 ng·h/mL, a Cmax (clinical; Cmax, Geometric Mean) of 1030 ng/mL and a Tmax (clinical; Tmax, Geometric Mean) of 3.5 h. The half-life (clinical; t1/2, Geometric Mean) was 24.7 h.

With `O=C(NN1C(=O)C2C3C=CC(C4CC34)C2C1=O)c1ccc(C(F)(F)F)cc1` (single isomer, unassigned) [Form V, 4-trifluoromethyl-N-(3,3a,4,4a,5,5a,6,6a-octahydro-1,3-dioxo-4,6-ethenocycloprop[f]isoindol-2(1H)-yl)-benzamide] the “AUC0-τ, Geometric Mean” value [1] was 19020.83 ng·h/mL, the “AUC0-τ, Median” value [1] was 19398.5 ng·h/mL and the “AUC0-∞, Geometric Mean” value [1] was 20409.17 ng·h/mL. The “AUC0-∞, Median” value [1] was 19465.47 ng·h/mL, the “AUC(extrap), Geometric Mean” value [1] was 12.369% and the “AUC(extrap), Mean” value [1] was 15.275%. For the same molecule, the “AUC(extrap), Median” value [1] was 12.465%, the “Cmax, Geometric Mean” value [1] was 1185 ng/mL and the “Tmax, Geometric Mean” value [1] was 3.6 h. For the same molecule, the “t1/2, Geometric Mean” value [1] was 23.083 h.
